# Measured values taken from PubChem BioAssay AID504332 (National Center for Advancing Translational Sciences (NCATS), 2011).
# Values joined by “and” are separate entries in the source; they are usually repeats but may differ in a detail not shown here. Identical values can stand only once. About 31,000 (8.9%) of roughly 350,000 compounds were called active. Inconclusive results, whose numbers are uncertain, are shown with a selection of clear calls. The call rests on the fitted dose curve; in most records, active means well fitted inhibition curve with a large enough effect; inconclusive means small, poorly fitted or top-dose-only effect; inactive means no such curve, though single readings can be large or run the other way. Where the call is inconclusive, the potency comes from a doubtful curve fit. The source holds several records for some structures; these can differ, active in one and inactive in another.
# Target: Histone-lysine N-methyltransferase EHMT2 (Homo sapiens) (UniProt Q96KQ7)
# Chain of UniProt Q96KQ7 (Q96KQ7 whole entry, looked up): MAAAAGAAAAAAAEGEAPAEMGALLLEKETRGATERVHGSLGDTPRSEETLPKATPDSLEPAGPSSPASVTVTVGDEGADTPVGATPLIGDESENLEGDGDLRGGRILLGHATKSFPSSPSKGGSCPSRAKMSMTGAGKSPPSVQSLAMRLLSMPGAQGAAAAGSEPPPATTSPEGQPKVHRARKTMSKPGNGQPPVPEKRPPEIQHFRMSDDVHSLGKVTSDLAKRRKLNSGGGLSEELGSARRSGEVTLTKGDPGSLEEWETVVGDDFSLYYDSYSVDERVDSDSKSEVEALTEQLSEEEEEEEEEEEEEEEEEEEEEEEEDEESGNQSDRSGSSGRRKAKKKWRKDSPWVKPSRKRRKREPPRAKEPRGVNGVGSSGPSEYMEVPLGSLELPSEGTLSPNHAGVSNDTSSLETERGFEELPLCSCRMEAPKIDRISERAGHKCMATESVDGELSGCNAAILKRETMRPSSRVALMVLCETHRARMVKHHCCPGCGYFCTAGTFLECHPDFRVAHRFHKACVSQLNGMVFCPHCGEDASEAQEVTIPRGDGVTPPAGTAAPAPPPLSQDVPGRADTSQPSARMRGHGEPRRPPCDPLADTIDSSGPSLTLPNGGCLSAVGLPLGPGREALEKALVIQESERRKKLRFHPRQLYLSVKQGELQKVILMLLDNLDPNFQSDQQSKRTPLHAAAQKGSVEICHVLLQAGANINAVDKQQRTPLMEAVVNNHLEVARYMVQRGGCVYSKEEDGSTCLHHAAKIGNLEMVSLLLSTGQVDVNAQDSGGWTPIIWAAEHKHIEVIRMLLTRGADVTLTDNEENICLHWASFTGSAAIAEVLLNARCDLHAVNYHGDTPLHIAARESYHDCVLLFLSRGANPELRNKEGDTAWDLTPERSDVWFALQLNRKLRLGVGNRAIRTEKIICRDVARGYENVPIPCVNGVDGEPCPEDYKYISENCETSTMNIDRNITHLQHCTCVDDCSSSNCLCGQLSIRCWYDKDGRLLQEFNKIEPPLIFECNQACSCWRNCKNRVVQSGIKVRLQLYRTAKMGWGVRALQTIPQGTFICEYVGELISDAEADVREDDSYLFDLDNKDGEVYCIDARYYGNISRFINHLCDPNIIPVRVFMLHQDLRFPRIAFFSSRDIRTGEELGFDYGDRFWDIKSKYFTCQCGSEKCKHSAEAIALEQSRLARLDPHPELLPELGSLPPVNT
# Experiment: qHTS Assay for Inhibitors of Histone Lysine Methyltransferase G9a; further: nearly all actives have a fitted effect of over 75% in size
# Conditions: G9a H3K9 monomethylation, AlphaScreen, 2 h; activity, negative = inhibition: at 59 µM (top of the series) unless noted
# How it was run: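 Readings reflect AlphaScreen signal from monomethyl-H3K9 antibody detection. HMT at 20 nM; substrate b-H3K9 500 nM; cofactor SAM 20 uM; 2 h RT reaction; compounds tested as titrations in qHTS with 15 min preincubation.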
# On the % scale 0 is the no-effect control and ±100 the full control effect; potency means the concentration at half of the fitted maximal effect; tags describe the fitted curve by direction and shape.
Structure (SMILES),Potency,"activity, negative = inhibition"
COc1cc(C(=O)NNC(=S)NCc2ccco2)cc(OC)c1OC,active: 56.2 µM,
CCOC(=O)N1CCC(N2C(=O)c3ccccc3C2Nc2ccccc2)CC1 (stereo not drawn),,inactive: -19.2% [at 102 µM]
Cc1cc2c(c(=O)n1Cc1cccnc1)C(Cc1ccccc1)C(C#N)=C(N)O2 (stereo not drawn),"inconclusive: 70.8 µM [inhibitor, single point]",
Cn1c(SCC(=O)N/N=C/c2cc([N+](=O)[O-])ccc2O)nnc1-c1ccccc1,,inactive: -2.13% [at 102 µM]
CC1CC(C)CN(S(=O)(=O)c2ccc(C(=O)Nc3nnc(-c4cccs4)o3)cc2)C1 (stereo not drawn),,inactive: -4.57%
COc1ccc(NCc2cc3cc4c(cc3n(CC(=O)Nc3ccc(F)cc3F)c2=O)OCO4)cc1,"inconclusive: 7.08 µM [inhibitor, single point]",
Cc1ccc(-c2ccnc3[nH]n(-c4ccccc4)c(=O)c23)cc1,"inconclusive: 56.2 µM [inhibitor, single point]",
Cn1cc(Cl)c(-c2n[nH]c(=S)n2C2CCCCC2)n1,"inconclusive: 25.1 µM [inhibitor, single point]",
COc1cc2c(cc1OC)CN(C(=O)/C=C/c1ccccc1[N+](=O)[O-])CC2,"inconclusive: 100 µM [inhibitor, single point]",
CCOC(=O)C12CNC(=O)C(C(=O)OCC)(CNC1=O)C2,"inconclusive: 14.1 µM [inhibitor, single point]",
O=C(CCN1CCN(C(c2ccccc2)c2ccccc2)CC1)N/N=C/c1ccc(O)cc1O,"inconclusive: 79.4 µM [inhibitor, partial curve, poor fit]",
CC(C)N(C(=O)c1ccc(C(=O)Nc2ccc([N+](=O)[O-])cc2)cc1)C(C)C,,inactive: 1.59% [at 102 µM]
Cc1ccc(S(=O)(=O)NC(C)C(=O)NC2CC2)cc1 (stereo not drawn),active: 79.4 µM,
CCOC(=O)c1sc(NC(=O)CSc2nnnn2-c2ccc(C)cc2)c(C(=O)OCC)c1C,,inactive: 10%
CC1CN(CCOc2cccc(Oc3ccccc3)c2)CC(C)O1 (stereo not drawn),active: 10 µM,
C=C1c2c(Cl)ccc(O)c2C(O)=C2C(=O)[C@@]3(O)C(O)=C(C(N)=O)C(=O)[C@@H](N(C)C)[C@@H]3[C@@H](O)[C@H]12,active: 11.2 µM,
COc1ccc(N2C(=O)CC(N3CCOCC3)C2=O)cc1 (stereo not drawn),,inconclusive: -88.5% [inhibitor]
Nc1ccn([C@@H]2O[C@H](CO)[C@@H](O)C2O)c(=O)n1 (stereo partly drawn),active: 11.2 µM,
COc1ccc(NC(=O)CC2C(=O)N(c3ccc(F)cc3)C(=O)N2Cc2cccnc2)cc1 (stereo not drawn),"inconclusive: 6.31 µM [inhibitor, partial curve, poor fit]",
CCC(C(=O)Nc1ccc(C(=O)OC)cc1)n1c(=O)c(-c2ccccc2NC(C)=O)nc2ccccc21 (stereo not drawn),"inconclusive: 39.8 µM [inhibitor, partial curve, poor fit]",
CCCC1=C(C(=O)OCC)C(c2c(C)nn(-c3ccccc3)c2Cl)C(C#N)=C(N)O1 (stereo not drawn),"inconclusive: 12.6 µM [inhibitor, partial curve, poor fit]",
Cc1cc(NS(=O)(=O)c2ccc(NC(=O)c3cc(-c4ccccc4Cl)nc4ccccc34)cc2)no1,"inconclusive: 39.8 µM [inhibitor, single point]",
CC(/C=C/C=C/c1ccccc1)=N/NC(=O)CNc1ccc(C)cc1,"inconclusive: 39.8 µM [inhibitor, full curve, poor fit]",

Structure (SMILES),Potency,"activity, negative = inhibition"
CCOc1ccc(/C=c2\sc3nc(-c4ccco4)nn3c2=O)cc1OCC,,inconclusive: -57.3% [inhibitor]
O=C(O)CCSc1nnc(-c2cccnc2)n1-c1ccccc1,"inconclusive: 89.1 µM [inhibitor, partial curve, poor fit]",
O=C1CCCC/C1=N\Nc1ccc(OCc2ccccc2)cc1,active: 39.8 µM,
CCCS(=O)(=O)Nc1cc(C(F)(F)F)ccc1OCCOC,,inconclusive: -71.9% [inhibitor]
COC(=O)C1=C(N)OC2=C(C(=O)CC(C)(C)C2)C1c1cc2c(cc1Cl)OCO2 (stereo not drawn),"inconclusive: 89.1 µM [inhibitor, single point]",
CCOC(=O)CC(=O)CSc1nc2nc(C)cc(C)n2n1,"inconclusive: 1.41 µM [inhibitor, full curve]",
Cc1c(C(c2ccc(C(=O)O)cc2)c2c(C)n(C)n(-c3ccccc3)c2=O)c(=O)n(-c2ccccc2)n1C,"inconclusive: 31.6 µM [inhibitor, full curve, poor fit]",
COC(=O)c1c(NC(=O)Cc2ccccc2)sc2c1C(C(=O)OC)CC2 (stereo not drawn),active: 39.8 µM,
O=C(O)c1cccc(N=C2NC(=O)C(CO)(CO)S2)c1,"inconclusive: 89.1 µM [inhibitor, single point]",
Cc1ccc(N2CCN(c3ccc(C)cc3)C2c2ccncc2)cc1,active: 35.5 µM,
CCOC(=O)c1nc(C)nc(Sc2n[nH]c(-c3cc(Cl)cc(Cl)c3)n2)c1C,,inconclusive: -101% [inhibitor]
Cc1nc2ccccc2c(=O)n1NC(=O)CCC(=O)O,,inactive: -20.3% [at 102 µM]
O=C(c1ccccc1F)N1CCN(c2ccc([N+](=O)[O-])c(NCc3cccnc3)c2)CC1,"inconclusive: 44.7 µM [inhibitor, partial curve]",
Cc1cccc(NC(=O)C2C3C=CC(O3)C2C(=O)O)c1 (stereo not drawn),active: 28.2 µM,
CN1CCCN(C(=O)c2ccc(Cl)c(S(=O)(=O)N(C)c3ccccc3)c2)CC1,active: 50.1 µM,
CCNC(=S)N(Cc1ccc2c(c1)OCO2)C1CC(=O)N(c2ccc(OC)cc2)C1=O (stereo not drawn),"inconclusive: 89.1 µM [inhibitor, partial curve, poor fit]",
Cc1ccc(Cl)cc1N1CCN(C(=O)C2CCN(S(=O)(=O)c3c(C)nn(C)c3C)CC2)CC1,"inconclusive: 89.1 µM [inhibitor, single point]",
CC(C)(C)c1cc(C(=O)Nc2cccnc2)cc(C(=O)Nc2cccnc2)c1,"inconclusive: 89.1 µM [inhibitor, single point]",
COc1ccccc1N1CCN(C(=O)c2oc3cc(C)c(C)cc3c2C)CC1,,inconclusive: -59.1% [inhibitor]
O=C(Nc1ccccc1C(=O)O)/C(=C/c1ccc([N+](=O)[O-])cc1)NC(=O)c1ccc(Br)o1,active: 44.7 µM,
COc1ccc(C(=O)Nc2ccnn2C2CCN(C(=O)c3cccnc3)CC2)cc1,"inconclusive: 25.1 µM [inhibitor, partial curve, poor fit]",
Cc1cc(C(=O)COC(=O)C2CC2)c(C)n1-c1ccc(F)cc1,"inconclusive: 89.1 µM [inhibitor, partial curve, poor fit]",
COc1ccc(CCN=C(N)NS(=O)(=O)c2ccc3ccccc3c2)cc1,"inconclusive: 0.891 µM [inhibitor, full curve, poor fit]",

Structure (SMILES),Potency,"activity, negative = inhibition"
CC(=O)c1ccc(OCC(=O)Nc2ccc(N3CCCCC3)cc2)cc1,,inactive: -17.2% [at 12.7 µM]
COc1ccc(NC(=O)C(NS(=O)(=O)c2ccc3c(c2)CCCC(=O)N3)C(C)C)c(OC)c1 (stereo not drawn),,inactive: -6.29%
CCc1cc2c(NCC(=O)O)ncnc2s1,"inconclusive: 89.1 µM [inhibitor, single point]",
COc1cc(NC(=O)CCn2c(-c3ccccc3)cc(C(C)=O)c2C)cc(OC)c1,"inconclusive: 22.4 µM [inhibitor, partial curve, poor fit]",
CCN(c1cccc(C)c1)S(=O)(=O)c1ccc2c3c(cccc13)C(=O)N2,"inconclusive: 39.8 µM [inhibitor, single point]",
Cc1ncc(N=Nc2ccccc2)c(-c2ccccc2)n1,"inconclusive: 31.6 µM [inhibitor, single point]",
O=C(Nc1ccccc1N1CCCC1)c1cc2ccccc2o1,"inconclusive: 3.55 µM [inhibitor, partial curve, poor fit]",
CCN1CCN(CC2CC3C=CC2C3)CC1 (stereo not drawn),"inconclusive: 25.1 µM [inhibitor, single point]",
Oc1cc(-n2cccn2)c(O)cc1-n1cccn1,active: 0.708 µM,
Cc1cc(C)n(-c2ccc(C(=O)Nc3cccc([N+](=O)[O-])c3)cc2)n1,,inactive: 0.872% [at 102 µM]
CCc1ccc(C2CC(=O)c3c([nH]c(C(=O)OCC4CCCCC4)c3C)C2)cc1 (stereo not drawn),,inactive: 0.107%
Cc1cccc(OCCCC(=O)NNC(=O)CCN2CCN(c3ccccc3)CC2)c1,"inconclusive: 50.1 µM [inhibitor, partial curve]",
CCCCn1c(SCn2nnc3ccccc3c2=O)nc2cc(S(N)(=O)=O)ccc21,"inconclusive: 7.08 µM [inhibitor, single point]",
CCCCN(C(=O)C1CCCO1)c1c(N)n(CC(C)C)c(=O)[nH]c1=O (stereo not drawn),"inconclusive: 89.1 µM [inhibitor, single point]",
COc1ccc(NC(=O)CSc2nc3c(c(=O)n2-c2ccccc2OC)SCC3)cc1,"inconclusive: 14.1 µM [inhibitor, partial curve, poor fit]",
Cc1ccc2oc(-c3ccccc3C(=O)O)cc(=O)c2c1,,inactive: 5.25%
COc1ccc(NS(=O)(=O)c2ccc(F)cc2F)cn1,,inactive: 9.65% [at 102 µM]
COc1ccc(NS(=O)(=O)c2cc3[nH]c(=O)c(=O)[nH]c3cc2C)cc1Cl,,inactive: -29.6%
COc1ccc(NC(=O)CSc2nnc(CCC(=O)O)c(=O)n2N)cc1,"inconclusive: 56.2 µM [inhibitor, partial curve]",
Oc1ccc(Cn2cc[nH]c2=S)cc1,active: 3.16 µM and active: 2.99 µM,
Cc1oc(C(C)(C)C)cc1C(=O)NC(Cc1ccccc1)C(=O)O (stereo not drawn),,inactive: 0.732% [at 102 µM]
Cc1cccc(NC(=O)CCC(=O)N/N=C/c2ccncc2)c1,"inconclusive: 0.316 µM [inhibitor, partial curve, poor fit]",
